# Assay results published in paper PMC4336329 (PLoS ONE, 2015).
# The campaign covered roughly 310,000 compounds. About 14,000 (4.5%) showed an effect of 50% or more. The effect is printed as a negative number. This is one part of the list.
# Molecular target: human ether-à-go-go-related gene (hERG) potassium channel (human, UniProt Q12809)
# Test: primary screen, population patch clamp on CHO cells stably expressing hERG
# 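Note: peak tail current of the secondary pulse compared with the same well before compound.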
# human ether-à-go-go-related gene (hERG) potassium channel, sequence (Q12809 whole entry, looked up): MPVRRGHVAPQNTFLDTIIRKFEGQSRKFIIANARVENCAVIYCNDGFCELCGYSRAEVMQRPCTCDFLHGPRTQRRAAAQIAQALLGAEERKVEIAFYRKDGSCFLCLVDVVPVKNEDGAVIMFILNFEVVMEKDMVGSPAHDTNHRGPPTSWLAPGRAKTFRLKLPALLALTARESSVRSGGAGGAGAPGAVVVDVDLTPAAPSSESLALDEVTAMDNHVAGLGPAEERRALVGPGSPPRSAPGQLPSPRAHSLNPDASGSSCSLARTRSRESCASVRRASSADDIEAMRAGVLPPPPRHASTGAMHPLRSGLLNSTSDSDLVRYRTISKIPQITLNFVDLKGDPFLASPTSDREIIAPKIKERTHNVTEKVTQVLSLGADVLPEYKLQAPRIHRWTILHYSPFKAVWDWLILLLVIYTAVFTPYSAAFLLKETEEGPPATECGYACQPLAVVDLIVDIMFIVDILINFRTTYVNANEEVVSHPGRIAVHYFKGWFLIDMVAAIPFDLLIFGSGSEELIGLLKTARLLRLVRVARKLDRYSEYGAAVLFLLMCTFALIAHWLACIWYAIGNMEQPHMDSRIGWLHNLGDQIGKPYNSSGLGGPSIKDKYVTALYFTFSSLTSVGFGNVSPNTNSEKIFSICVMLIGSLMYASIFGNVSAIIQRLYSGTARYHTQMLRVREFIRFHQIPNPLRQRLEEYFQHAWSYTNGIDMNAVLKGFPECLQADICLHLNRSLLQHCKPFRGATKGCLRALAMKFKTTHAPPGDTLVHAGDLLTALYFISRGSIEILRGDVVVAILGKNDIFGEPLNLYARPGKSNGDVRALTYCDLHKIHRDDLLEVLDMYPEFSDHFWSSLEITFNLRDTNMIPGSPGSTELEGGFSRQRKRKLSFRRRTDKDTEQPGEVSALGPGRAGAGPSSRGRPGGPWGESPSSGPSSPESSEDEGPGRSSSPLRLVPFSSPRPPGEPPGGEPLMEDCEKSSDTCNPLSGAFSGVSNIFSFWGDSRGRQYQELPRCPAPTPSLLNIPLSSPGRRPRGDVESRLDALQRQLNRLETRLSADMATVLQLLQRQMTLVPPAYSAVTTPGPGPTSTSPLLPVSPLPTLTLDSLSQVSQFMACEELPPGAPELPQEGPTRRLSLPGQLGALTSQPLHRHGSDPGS
row,SMILES,"hERG current change (%, negative = inhibition) at 10uM"
1,CC(C)[C@H](NC(=O)c1ccccc1)C(=O)NCCc1ccccc1,-32.4%
2,CSc1cccc(NC(=O)CCCOc2ccc(Cl)cc2C)c1,-2.48%
3,Cc1ccnc(NC(=O)CCC(=O)N(CC(=O)NCc2ccccc2)Cc2ccccc2)c1,-16.7%
4,COc1cccc(F)c1C(C[N+](=O)[O-])c1c(N)n(C)c(=O)n(C)c1=O (centres unmarked),-0.833%
5,CNC(=S)N/N=C/c1ccc2c(c1)OCCO2,22.6%
6,Cc1noc(C)c1CSCC(=O)N1CCN(c2ccc([N+](=O)[O-])cc2)CC1,-76.8%
7,O=C(NCC1CCN(Cc2ccc(Cl)cc2)CC1)C1CCCN(c2ncnc3c2nc2n3CCCCC2)C1 (centres unmarked),-65.7%
8,CCN(CC)S(=O)(=O)c1ccc(N/N=C/c2ccc(O)cc2)nc1,-12.9%
9,CCOC(=O)N1CCC(NC(=O)CCC(=O)N2CC(C)Oc3ccc(Cl)cc32)CC1 (centres unmarked),-3.99%
10,CCCc1cc(=O)[nH]c(/N=C(/NC(=O)c2ccccc2)Nc2ccc3c(c2)OCCO3)n1,10.1%
11,Cc1cc(NC(=O)COC(=O)C2=COCCO2)c([N+](=O)[O-])cc1C,14.9%
12,CCc1ccc(NC(=O)NCCN2CCN(c3ccc(OC)cc3)CC2)cc1,-14.1%
13,O=C(c1cc(S(=O)(=O)N2CCOCC2)c(Cl)cc1Cl)N1CCCCC1,-3.46%
14,Cl.O=C(c1ccco1)N1CCN(C(c2ccccc2Cl)c2nnnn2CC2CCCO2)CC1 (centres unmarked),-12.3%
15,CCOc1cc(N2CCOCC2)c(OCC)cc1NC(=O)CSc1nc(N)cc(=O)[nH]1,10.4%
16,COc1cccc(C(=O)Nc2nnc(S(=O)(=O)N(C)c3ccccc3)s2)c1,12.6%
17,Cc1cccc(C(=O)OCCN2CCOCC2)c1.Cl,12.3%
18,O=C(Nc1ccccc1)c1ccc(NC2CCCCC2)c(S(=O)(=O)N2CCOCC2)c1,6.2%
19,O=C(NCCN1CCOCC1)c1ccc2ccccc2n1,13.8%

row,SMILES,"hERG current change (%, negative = inhibition) at 10uM"
1,Cc1ccnc2nc(C(=O)NC3=NCCS3)nn12,11.8%
2,S=C1N(c2ccccc2)CN(CCN2CCOCC2)CN1c1ccccc1,23%
3,CCCCCC(=O)Nc1ccc2oc(-c3cccnc3)nc2c1,-6.74%
4,O=C(CSc1n[nH]c(-c2ccncc2)n1)Nc1ccc(Br)cc1,-2.1%
5,CCC(C)[C@@H](CN)NCC1(c2ccccc2)CC1 (some centres unmarked),20.9%
6,Cc1ccc(NC(=O)c2ccc(CNS(=O)(=O)c3cccc(C(F)(F)F)c3)cc2)cc1,-5.08%
7,O=C1C(C=NCc2ccncc2)=C(O)c2ccccc21,-9.12%
8,CN1C2CCC1CC(NC(=O)c1ccc([N+](=O)[O-])cc1)C2 (centres unmarked),3.81%
9,O=C(/C=C/c1ccc(Cl)cc1Cl)Nc1cccc(S(=O)(=O)NC2=NCCC2)c1,25.8%
10,CC(C(=O)Nc1nncs1)N1C(=O)C2C3C=CC(C3)C2C1=O (centres unmarked),-0.959%
11,CC(=O)C1=C(O)C(=O)N(c2ccc(C(=O)O)cc2)C1c1ccccc1 (centres unmarked),14.1%
12,COc1cc(OC)cc(C(=O)N2CCC(C(=O)N3CCOCC3)CC2)c1,17%
13,Cc1cccc(OCC(=O)Nc2ccccc2-c2ccccc2)c1,9.76%
14,O=C(CN1CCOCC1)Nc1ccc(OCc2ccccc2)cc1,-21.3%
15,COc1cc(C2C3=C(CCCC3=O)Nc3[nH]n(-c4ccccc4)c(=O)c32)ccc1OC(C)=O (centres unmarked),14.2%
16,CN(C)c1ccc(/C=C(\C#N)C(=O)c2ccccc2)cc1,13.3%
17,NC(=S)N/N=C/c1cc([N+](=O)[O-])ccc1Cl,30.4%
18,O=C(CN1C(=O)COc2ccccc21)NCCCN1CCOCC1,20.3%
19,CNC(=O)/C(=C/c1ccc2c(c1)OCO2)NC(=O)c1ccc(Br)cc1,-63.4%

row,SMILES,"hERG current change (%, negative = inhibition) at 10uM"
1,O=C(CSc1nc2[nH]ncc2c(=O)n1-c1ccccc1Cl)N1CCCC1,-7.31%
2,Cc1c(C(=O)Nc2nnc(SCc3ccccc3Cl)s2)cccc1[N+](=O)[O-],10.8%
3,O=C(NNc1cc(C(F)(F)F)ccc1Cl)c1ccc(=O)[nH]c1,21.9%
4,CC(=O)Oc1cccc(C2C3=C(CC(C)(C)CC3=O)Nc3ccccc3N2C(C)=O)c1 (centres unmarked),8.02%
5,COC(=O)c1cc(NC(=O)CC2C(=O)NCCN2C(=O)c2ccccc2)cc(C(=O)OC)c1 (centres unmarked),17.7%
6,CC(=O)Nc1ccc(NC(=O)c2ccccc2F)cc1,2.37%
7,O=C1NC(=S)N/C1=C/c1cc2c(cc1[N+](=O)[O-])OCO2,20.1%
8,CC(=O)c1sc(NC(=O)COc2ccc([N+](=O)[O-])cc2)nc1C,8.3%
9,C[C@@H]([C@H](O)c1ccccc1)N(C)C(=S)Nc1ccccc1,16.3%
10,Cc1ccc(CN2CCCN(Cc3ccc(Cl)cc3)S2(=O)=O)cc1,22.6%
11,OC1/C(=C/c2ccc(F)cc2)N2CCC1CC2 (centres unmarked),21.6%
12,CC(OC(=O)CN1C(=O)c2ccccc2C1=O)C(=O)NCc1ccccc1 (centres unmarked),10.7%
13,COc1ccc(/C=C/c2n[nH]c(=O)c(C#N)c2C)cc1,12.1%
14,O=C(NCCCn1ccnc1)C1CC(c2cccc(Br)c2)=NO1 (centres unmarked),-31.8%
15,Cc1ccccc1NC(=O)C1CCCN1S(=O)(=O)c1cccc2cccnc12 (centres unmarked),-12%
16,O=C(CSc1nnc(-c2ccc(F)cc2)o1)Nc1ccccc1N1CCOCC1,-24.4%
17,CN(Cc1cccs1)C(=O)c1cc(S(=O)(=O)N2CCOCC2)ccc1N1CCCC1,-27.1%
18,COc1ccc(OC)c(NS(=O)(=O)Cc2ccccc2)c1,4.62%
